# Test results reported in PubChem BioAssay AID2528 (National Center for Advancing Translational Sciences (NCATS), 2010).
# The campaign covered roughly 350,000 compounds. About 700 (0.2%) were called active. The inconclusive results got no clear call from the source; some entries with a clear call stand among them for comparison. The call rests on the fitted dose curve; in most records, active means well fitted inhibition curve with a large enough effect; inconclusive means small, poorly fitted or top-dose-only effect; inactive means flat fitted curve, though single readings scatter. Potencies of inconclusive entries are left out as doubtful fits.
# Target: RecQ-like DNA helicase BLM (Homo sapiens) (UniProt P54132)
# Assay: qHTS Assay for Inhibitors of Bloom's syndrome helicase (BLM); further: nearly all actives have a fitted effect of over 35% in size;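 on activity change, negative = inhibition: plate controls were vehicle for no effect and no enzyme for full effect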
# Conditions: recombinant BLM DNA unwinding, fluorescence dequenching; series mostly up to 56.1 µM; activity change, negative = inhibition: at the top concentration
# Potency means the concentration at half of the fitted maximal effect; tags describe the fitted curve by direction and shape.
# Sequence of UniProt P54132 (P54132 whole entry, looked up): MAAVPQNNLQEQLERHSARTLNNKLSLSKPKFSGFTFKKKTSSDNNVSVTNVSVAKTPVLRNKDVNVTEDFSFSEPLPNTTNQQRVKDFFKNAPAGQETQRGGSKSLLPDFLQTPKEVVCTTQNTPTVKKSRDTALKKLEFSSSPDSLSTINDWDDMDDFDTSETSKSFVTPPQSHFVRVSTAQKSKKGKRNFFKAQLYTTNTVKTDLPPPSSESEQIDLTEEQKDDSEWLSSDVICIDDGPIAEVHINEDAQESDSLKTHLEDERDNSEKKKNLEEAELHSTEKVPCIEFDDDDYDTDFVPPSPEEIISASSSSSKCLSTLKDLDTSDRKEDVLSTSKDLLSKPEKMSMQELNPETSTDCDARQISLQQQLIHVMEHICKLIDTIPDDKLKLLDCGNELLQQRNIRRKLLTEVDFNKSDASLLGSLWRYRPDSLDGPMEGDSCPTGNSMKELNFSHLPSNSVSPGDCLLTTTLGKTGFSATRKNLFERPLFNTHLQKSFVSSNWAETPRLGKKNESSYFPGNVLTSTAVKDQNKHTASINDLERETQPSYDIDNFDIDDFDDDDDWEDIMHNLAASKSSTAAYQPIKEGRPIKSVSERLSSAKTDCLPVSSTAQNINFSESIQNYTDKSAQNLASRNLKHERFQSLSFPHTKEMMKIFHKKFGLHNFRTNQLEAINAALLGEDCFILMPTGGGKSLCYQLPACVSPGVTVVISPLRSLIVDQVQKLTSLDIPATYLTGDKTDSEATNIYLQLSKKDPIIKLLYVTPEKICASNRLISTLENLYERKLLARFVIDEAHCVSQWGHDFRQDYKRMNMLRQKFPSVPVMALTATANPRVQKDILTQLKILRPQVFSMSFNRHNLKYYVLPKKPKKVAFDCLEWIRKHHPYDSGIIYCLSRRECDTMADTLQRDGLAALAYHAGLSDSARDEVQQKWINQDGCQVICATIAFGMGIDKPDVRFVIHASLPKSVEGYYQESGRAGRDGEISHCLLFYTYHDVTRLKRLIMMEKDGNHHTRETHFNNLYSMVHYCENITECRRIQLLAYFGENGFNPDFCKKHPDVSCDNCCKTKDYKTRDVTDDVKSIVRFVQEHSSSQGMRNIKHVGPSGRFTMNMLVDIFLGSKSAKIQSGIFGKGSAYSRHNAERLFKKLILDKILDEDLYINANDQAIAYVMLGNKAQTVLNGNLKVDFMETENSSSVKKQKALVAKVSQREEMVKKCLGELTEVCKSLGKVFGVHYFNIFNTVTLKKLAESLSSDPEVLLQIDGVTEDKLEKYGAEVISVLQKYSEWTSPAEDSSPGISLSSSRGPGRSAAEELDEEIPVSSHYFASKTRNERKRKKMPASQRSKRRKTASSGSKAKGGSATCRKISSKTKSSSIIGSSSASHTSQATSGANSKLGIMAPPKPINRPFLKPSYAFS
SMILES,"activity change, negative = inhibition",Potency
COc1cccc(-n2cc(C(=O)NCc3ccc(C)cc3)c3ccccc3c2=O)c1,inactive: -2.28%,
O=c1c2c(nc3n1CCCCC3)sc1c(O)c(Br)ccc12,inactive: -8.54%,
CCCCCCCCCCCCCCCC(=O)N[C@@H](COP(=O)(O)O)C(=O)O,,inactive
COc1ccc(-c2nnc(Nc3nc4c(OC)cccc4s3)o2)cc1,,"inconclusive [inhibitor, single point]"
NC(=O)CSc1nnc(Cn2c(=O)sc3ccccc32)n1-c1cccc(Cl)c1,inactive: -1.62%,
O=C(O)C1=CC(=C(c2ccc(O)c(C(=O)O)c2)c2ccc(O)c(C(=O)O)c2)C=CC1=O,,active: 2.82 µM
COc1ccc(C)cc1-n1nnnc1SCC(=O)c1cc(C)n(Cc2ccco2)c1C,,"inconclusive [inhibitor, single point]"
O=C(CCSCc1ccccc1Cl)N1CCN(c2ccc(F)cc2)CC1,inactive: -5.52%,
CC(C)OCCCNC(=O)CCCn1c(SCC(N)=O)nc2c(sc3ccccc32)c1=O,inactive: 1.5%,
Cc1ccc(NC(=O)C2CCN(S(=O)(=O)c3ccc4c(c3)CCCN4C(=O)C3CCC3)CC2)cc1,inactive: -5.4%,
Cc1cccc(/C=C2\Sc3ccc(C(=O)NCC4CCCO4)cc3N(C)C2=O)c1 (stereo unspecified),,"inconclusive [inhibitor, single point]"
Cc1ccc(-c2nnc(SCC(=O)NCc3ccccc3)nc2-c2ccc(C)cc2)cc1,inactive: -9.64%,
Cc1ccc2c(Cl)cc(Cl)c(OCC(=O)NCc3ccco3)c2n1,,"inconclusive [inhibitor, partial curve]"
O=C(/C=C/c1ccco1)N(c1ccccn1)c1ccccn1,,"inconclusive [inhibitor, single point]"
COc1ccccc1NS(=O)(=O)c1cc(NC(=O)c2cc[n+]([O-])cc2)ccc1N1CCCC1,inactive: -15.1%,
O=C(/C=C/c1ccc(O)c(O)c1)O[C@H](Cc1ccc(O)c(O)c1)C(=O)O,,active: 22.4 µM
COc1cc(CNc2ccc(O)cc2)cc(Br)c1OCc1ccccc1F,,"inconclusive [inhibitor, single point]"
CCCCN(CC)c1nc(C)nc2c1c(C)c(C)n2-c1c(C)cc(C)cc1C,inactive: -9.95%,
Cc1cc(C(=O)N2CCN(Cc3ccccc3)CC2)ccc1[N+](=O)[O-],,"inconclusive [inhibitor, single point]"
CC(C)c1ccccc1S(=O)(=O)c1cc(N)c2ncccc2c1[N+](=O)[O-],inactive: 2.94%,
O=C(NCC1OCCc2ccccc21)c1ccco1 (stereo unspecified),,"inconclusive [inhibitor, single point]"
CN(C)c1ccc(-c2nc(NC3CCNCC3)c3ccccc3n2)cc1,,"inconclusive [inhibitor, single point]"
CCN(CC)c1ccc(C=C2C(=O)OC3(CCCC3)OC2=O)cc1,inactive: 1.17%,
O=C(CCN1C(=O)/C(=C/c2ccc3c(c2)OCO3)SC1=S)Nc1ccc(C(=O)O)cc1,,"inconclusive [inhibitor, single point]"

SMILES,"activity change, negative = inhibition",Potency
N#Cc1ccccc1-c1ccc2ncnc(NCc3ccccc3)c2c1,,"inconclusive [inhibitor, single point]"
O=C1/C(=C\c2ccc(O)cc2)SC(=S)N1c1cccnc1,,"inconclusive [inhibitor, partial curve]"
CCCCNS(=O)(=O)c1ccc2nc(SCC(=O)Nc3sccc3C#N)[nH]c2c1,,"inconclusive [inhibitor, partial curve]"
COc1cc(Cl)c(C)cc1Nc1c2c(nc3ccccc13)CCC2,inactive: -0.797%,
Cc1ccc(S(=O)(=O)c2cc3c(=O)n4ccccc4nc3n(Cc3ccco3)c2=N)cc1C,,"inconclusive [inhibitor, single point]"
O=c1oc2cc(OCc3ccc([N+](=O)[O-])cc3)ccc2c2c1CCCC2,inactive: 1.7%,
Cc1cccc(N2CCC(N3CCN(C4CCCCC4)C(CCO)C3)CC2)c1C (stereo unspecified),,active: 14.1 µM
NC[C@H](O)c1ccc(O)c(O)c1,,active: 3.55 µM
COc1ccc(OC)c2c(=O)cc(C(=O)O)[nH]c12,inactive: -5.12%,
NNC(=O)c1oc2nc(-c3ccco3)cc(-c3ccco3)c2c1N,,"inconclusive [inhibitor, partial curve]"
Cc1ccccc1-c1nccc(-n2ccnc2)n1,inactive: 3.35%,
O=C1NC(=S)SC1=C1CCCC1,,"inconclusive [inhibitor, single point]"
C/C(=N\Nc1ccc(C(=O)O)cc1)c1ccc(Cl)s1,inactive: -1.75%,
CCOC(=O)/C=C1\SCC(=O)N1CC(=O)c1ccc[nH]1,,"inconclusive [inhibitor, partial curve]"
CCN1CCN(CCNC(=O)c2ccc(/C=C3/Sc4ccccc4N(Cc4ccccc4C)C3=O)cc2)CC1,,"inconclusive [inhibitor, single point]"
CCSc1n[nH]c(=S)s1,inactive: -6.28%,
Cc1ccc(/C=c2/sc3nnc(-c4ccccc4Cl)n3c2=O)o1,,"inconclusive [inhibitor, single point]"
Cn1c(SCC(=O)N2CCN(S(=O)(=O)c3ccccc3)CC2)nc2ccccc21,,"inconclusive [inhibitor, single point]"
Nc1ccc2c(c1)C(=O)C(=O)c1ccccc1-2,,"inconclusive [inhibitor, single point]"
CCOC(=O)C1=C(C)N=c2s/c(=C/c3ccc(OCC(=O)O)cc3)c(=O)n2C1c1ccc(OC)cc1OC (stereo unspecified),,"inconclusive [inhibitor, single point]"
N#Cc1c(=O)c2nc(NCCCO)ncc2n2c(=O)c3ccccc3[nH]c12,inactive: -20.3%,
CCc1nnc(N/N=C/c2ccc(-c3ccc([N+](=O)[O-])cc3)o2)n1N,,"inconclusive [inhibitor, single point]"
O=C(Nc1ccc2oc(-c3cc(Br)ccc3Cl)nc2c1)c1cc2ccccc2o1,,"inconclusive [inhibitor, partial curve]"
CCN1C(=O)c2ccccc2Sc2ccc(NC(=O)Nc3cccc([N+](=O)[O-])c3C)cc21,inactive: -2.5%,

SMILES,"activity change, negative = inhibition",Potency
Cc1ccc(NC(=O)CSc2nc3ccccc3c3nc(CCc4c(C)n[nH]c4C)nn23)cc1F,,"inconclusive [inhibitor, partial curve]"
CCN(CC)c1ccc(NC(=O)CSc2nnc(C)c(=O)[nH]2)cc1,inactive: 4%,
COc1cccc(NC(=O)Cc2nnc(SCC(=O)NC3CCCCC3)n2C)c1,inactive: -1.2%,
CC(C)c1ccc(S(=O)(=O)c2nnn3c2nc(NC2CCCC2)c2sccc23)cc1,inactive: -1.42%,
CCN1/C(=C/c2ccc3cccc(C)c3[n+]2CC)Sc2ccccc21,,"inconclusive [inhibitor, single point]"
Cc1cc(-c2csc(NC(=O)c3ccc(=O)n(C)n3)n2)c(C)n1CC1CCCO1 (stereo unspecified),,"inconclusive [inhibitor, single point]"
O=C(O)c1cccc(N2C(=O)C3C4C=CC(C4=C(c4ccccc4)c4ccccc4)C3C2=O)c1 (stereo unspecified),,"inconclusive [inhibitor, single point]"
COC(=O)C1=C(C(=O)OC)[C@@H]2N(Cc3ccccc3)c3ccccc3[C@@]23C[C@@H](C(=O)OC)N(S(=O)(=O)c2ccc(C(F)(F)F)cc2)C3=N1,inactive: 0.18% [at 12.4 µM],
COc1ccc(-c2nn(-c3ccccc3)cc2/C=C2/SC(=S)N(CCCC(=O)O)C2=O)c(C)c1,,"inconclusive [inhibitor, single point]"
COc1ccc(/C=N/Nc2nc(C)cc(-c3ccccc3)n2)c(OC)c1,inactive: -2.38%,
CCCCC(C)/C=C(C)/C=C(\C)C(=O)NC1=CC(O)(/C=C/C=C/C=C/C(=O)NC2=C(O)CCC2=O)C2OC2C1=O (stereo unspecified),,"inconclusive [inhibitor, single point]"
CCOc1ccc(N2CC(c3nc4ccccc4n3CCOc3ccc(OC)cc3)CC2=O)cc1 (stereo unspecified),,"inconclusive [inhibitor, single point]"
COc1ccc(/C=C/C(=O)NCC(=O)N=Nc2c(O)[nH]c3ccc([N+](=O)[O-])cc23)cc1,,"inconclusive [inhibitor, single point]"
O=C(CCN1C(=O)/C(=C/c2cccs2)SC1=S)NNC(=O)c1cccc(O)c1,,"inconclusive [inhibitor, single point]"
CC1N(C)c2cc(NC(=O)c3ccco3)ccc2C1(C)C (stereo unspecified),,"inconclusive [inhibitor, single point]"
CCCCCCCC/C=C/CCCCCCCC(=O)NCCOP(=O)(O)O,inactive: -0.115%,
Cc1ccc2cc(/C=C(\C#N)C(N)=O)c(N3CCCCC3)nc2c1,,"inconclusive [inhibitor, partial curve]"
Cc1c(Br)c(=O)oc2c(Br)c(O)c(O)cc12,,active: 7.94 µM
Nc1c(C(=O)NCc2ccco2)c2nc3ccccc3nc2n1CCc1ccccc1,,"inconclusive [inhibitor, single point]"
N#C/C(=C/c1ccc(N2CCCCCC2)o1)c1cccc(F)c1,,"inconclusive [inhibitor, single point]"
CC(=O)c1ccc(NC(=O)CSc2nnc(-c3ccco3)c(-c3ccco3)n2)cc1,,active: 7.94 µM
N#CCCn1c(=O)c(-c2cccc(C#N)c2)nc2cnc(Oc3ccccc3)nc21,,"inconclusive [inhibitor, partial curve]"
CCOc1ccc2nc3cc(NCc4ccc(OC)cc4)ccc3c(N)c2c1,,active: 14.1 µM
